Sequences and labels used below:
T1: UNK ZnF1-6 (called full-length) (human, UniProt Q9C0B0 30-357)
T1 sequence: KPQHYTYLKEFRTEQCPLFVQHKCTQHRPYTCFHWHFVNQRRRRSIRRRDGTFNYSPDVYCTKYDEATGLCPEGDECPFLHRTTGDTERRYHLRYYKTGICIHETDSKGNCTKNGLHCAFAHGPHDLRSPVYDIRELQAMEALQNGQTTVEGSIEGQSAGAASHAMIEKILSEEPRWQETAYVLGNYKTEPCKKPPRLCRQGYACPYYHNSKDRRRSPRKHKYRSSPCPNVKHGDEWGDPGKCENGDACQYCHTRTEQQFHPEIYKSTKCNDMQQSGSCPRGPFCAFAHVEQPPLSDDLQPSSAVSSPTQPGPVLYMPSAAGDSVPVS

B1: ENSG00000070961:be:win_651|CDS|ENSG00000070961|bound_else_gene|NA|bound_elsewhere_windowed (ssRNA)
RNA: GGGAGUUCUACAGUCCGACGAUCAGUGAAAUAUGGUGAUCUUCUUCCAGCUGACGGCAUACUUAUUCAAGGCAACGAUCUUAAAAUUGAUGAAAGCUCAUUGACUGGUGAAUCAGAUCAUGUUAAAAAGUCUUUAGAUAAGGACAACAGAGGAUUGAGCAUCA
B2: chr1:192811693:192811799:+|3pUTR|ENSG00000116741|unk|total|mutant (ssRNA)
RNA: GGGAGUUCUACAGUCCGACGAUCCUUGAAUUCAGCCUGGGUGUUCAGGAAACAUCACUCAGAACUAUUGAUUCAAAGUUGGGCCGUGAAUCAGGAAGCCAGUAACUGACCCGGAGAAGCUGGUAUCAGAACAGCUUCCCUCACCAACAGAGGAUUGAGCAUCA
B3: chr1:206732925:206733026:+|3pUTR|ENSG00000162889|msi1|FALSE|unique (ssRNA)
RNA: GGGAGUUCUACAGUCCGACGAUCAAGUGAGCAAGGUGCUCUUGAACCUGUGCUCAUUUUGCAAUUUUAUCAGUAAUUUGACUUAGAGUUUUUACGAAACCUCUUUUGUUGUCCUUGCCCCACUCCUCUCCACCAGACGCCUUCCAACAGAGGAUUGAGCAUCA
B4: chr12:10081268:10081413:-|three_prime_utr|ENSG00000150048|control|control|control (ssRNA)
RNA: GGGAGUUCUACAGUCCGACGAUCUCAGUACUACCAGCUCUCCAAUACUGGUCAAGACACCAUUUCUCAAAUGGAAGAAAGAUUAGGAAAUACGUCCCAAGAGUUGCAAUCUCUUCAAGUCCAGAAUAUAAAGCUUGCAGGAAGCAACAGAGGAUUGAGCAUCA
B5: chr15:39595431:39595532:+|3pUTR|ENSG00000137801|msi1_unk|total|mutant (ssRNA)
RNA: GGGAGUUCUACAGUCCGACGAUCCCCCAGGAUCACUUCUCCUUGGCUUCCUUCUUUUCUGUGCUUGCAUCAGUGUGGACUCCCCGAACGUGCGACCUGCCUCAAGAAAAUGCAGUUUUCAAAAACAGACUCAGCAUUCAGCCUCAACAGAGGAUUGAGCAUCA
B6: chr1:42696720:42696786:+|CDS|ENSG00000065978|msi1_unk|total|mutant (ssRNA)
RNA: GGGAGUUCUACAGUCCGACGAUCCCAGUUCAAGGCAGUAAAUAUGCAGCAGACCGUAACCAUUACCGACGCUAUCCACGUCGCCGGGGUCCUCCACGCAAUUACCAGCAAAAUUACCAGAACCGUGAGAGUGGGGAAAAGAACCAACAGAGGAUUGAGCAUCA
B7: chr4:138169334:138169435:-|3pUTR|ENSG00000151012|msi1|FALSE|unique (ssRNA)
RNA: GGGAGUUCUACAGUCCGACGAUCCCAUUUCACGCAGAAAAAAAGUCAGCCAGUAAUUAAGAAAAAAAGUGAUGGAGAUUAAGUAGUAUUUUGGCUUAUUUUUAGGACUCAUCAUGAGAAGACACAGUUCCUUUAAUCAGGAAACAACAGAGGAUUGAGCAUCA
B8: chrX:150470157:150470258:+|CDS|ENSG00000013619|unk|FALSE|unique (ssRNA)
RNA: GGGAGUUCUACAGUCCGACGAUCUCCAAAUGAGCUAGAUCUUGAGAAGAUACUGGGGACGAAGCCAGAAGAGCCACUGGUUUUAGAUCAUCCCCAGGCAACCCUAAGCACAACUCCCAAGCCUUCGGUUCAGAUGUCACACUUCAACAGAGGAUUGAGCAUCA
B9: chr5:96760809:96763199:-|three_prime_utr|ENSG00000164307|control|control|control (ssRNA)
RNA: GGGAGUUCUACAGUCCGACGAUCAGAAUCUCAGACUACAGCACUAAAUAUGCUUUGAUGCUACAUCAAACGGAAUGGAAGCAUAGCUGACUUCGCUAAAGUUACUUCAUCUCCAUCUAGCAAAUGAGGCACUGUUCUCAACCACAACAGAGGAUUGAGCAUCA
B10: chr1:64832709:64832810:+|3pUTR|ENSG00000162437|msi1|FALSE|bound_elsewhere (ssRNA)
RNA: GGGAGUUCUACAGUCCGACGAUCACAGCUAGAAAGUUUAAGGUAAUUUCUAAGUAUACUACCUAUAAGUAACUGAUAAGAAUUAGGCAUCAUUCAGUGAUAUAGCAGAUGACUAAUGGGUUUUUCAGGCCCUGCACUUCUCUUCAACAGAGGAUUGAGCAUCA
B11: chr4:174259701:174259819:-|CDS|ENSG00000164117|unk|FALSE|unique (ssRNA)
RNA: GGGAGUUCUACAGUCCGACGAUCAAAUCCACUUGGGGUCACUGUUCCAUAUACAAUAAGAACCCACCUUUAGGAUUUUCUUUUAGAAAAUUGUAUAUGCAGCUGGAUGAAGGCAGCCUCACCUUUAAUGCCAACCCAGAUGAGCAACAGAGGAUUGAGCAUCA
B12: chr3:11557161:11557262:-|3pUTR|ENSG00000144560|msi1|total|mutant (ssRNA)
RNA: GGGAGUUCUACAGUCCGACGAUCCCUCUGACUUUAUACUGUUAUUACUGCAUUUAUUAUUUGCUAUAUUAACCGCUACUAACCCGAAAUCCGAUGAAGCAAGCAUGACAGACACAGCUGUGGAGGUCACAGCUGCUCCUUUUUCAACAGAGGAUUGAGCAUCA
B13: chr1:113590523:113590624:+|CDS|ENSG00000081026|unk|FALSE|unique (ssRNA)
RNA: GGGAGUUCUACAGUCCGACGAUCUCAUCUGACUGGAUGAAGACUGUUCCAAGUUACAACCAAACAAAUAGCUCCAUGGACUUUAGAAAUUAUAUGAUGAGAGAUGAGACUCUGGAACCACUGCCCAAAAACUGGGAAAUGGCCCAACAGAGGAUUGAGCAUCA
B14: chr11:27368498:27368690:-|CDS|ENSG00000205213|msi1|FALSE|unique (ssRNA)
RNA: GGGAGUUCUACAGUCCGACGAUCACCCCUUUGUUUGCCAUUUCCUACAGGUGAAACGCCAUCAUUAGGAUUCACUGUAACGUUAGUGCUAUUAAACUCACUAGCAUUUUUAUUAAUGGCCGUUAUCUACACUAAACUAUACUGCAACAGAGGAUUGAGCAUCA
B15: chr1:17826356:17826472:+|CDS|ENSG00000117148|unk|FALSE|unique (ssRNA)
RNA: GGGAGUUCUACAGUCCGACGAUCAGGGAGCUGAUGGGGGAUCACGUCUCCUCCACCAAGGCCACAGUCUGGGAGGGUUCCAAUAGAAACUUUAGUGUCUGGCUAGGAGCGUCCGUGGUGGCUCACCUUUCUACCUACCAGUCUCAACAGAGGAUUGAGCAUCA
B16: chr2:96375651:96375752:+|3pUTR|ENSG00000121152|unk|total|mutant (ssRNA)
RNA: GGGAGUUCUACAGUCCGACGAUCAUUGACUAAGACAGUGGGUAUGCAAGAUAAGUUUAUUUUAUAUAAAAUACUUUGGGAAGCCGGUGUUCCCGGACUGGUGUGACAGUUCCAUGAAAUUAUGAGAGACCGGGGAUCCUUCCACAACAGAGGAUUGAGCAUCA
B17: chr12:48145849:48145950:+|3pUTR|ENSG00000152556|msi1|total|mutant (ssRNA)
RNA: GGGAGUUCUACAGUCCGACGAUCCAUGACCAGUUCUGGCCAGGAGCUGGAGGAGCAGGCAGUGGGUGGGAGCUCCUUUCCGGCCGAAUUUAACAUGACUUCUGCCCCAGCUUUAUCUGUCACACAAGGCUGGGCACCUCCCGUCAACAGAGGAUUGAGCAUCA
B18: chr4:106367042:106367435:-|CDS|ENSG00000250298|control|control|control (ssRNA)
RNA: GGGAGUUCUACAGUCCGACGAUCUUGUAGCCUGGGCCGCAGUUGUCACCUCCACAGCUUCAUGCGUCGAGGUGGGCUAGAGGUAGCCCUGCAGGUCCAGGUGUUGGACACUCCAGGUUAUCCACACAGCAGGCUGAGCAAGAACAACAGAGGAUUGAGCAUCA
B19: chr1:62654060:62654161:-|CDS|ENSG00000116641|unk|FALSE|unique (ssRNA)
RNA: GGGAGUUCUACAGUCCGACGAUCCUUGUUUUCUACCCAUCUCUUAUCCCAACUUUUUACAAAGGUGCCCCUUACCGAAGCAGUAGAUCCAGUGGAUUUGGAAGAUUACCUCAUUACUCAUCCUUUGGCUGUGGAUUCUGGGCCCAACAGAGGAUUGAGCAUCA
B20: chr17:63832812:63832858:-|3pUTR|ENSG00000108604|msi1_unk|total|mutant (ssRNA)
RNA: GGGAGUUCUACAGUCCGACGAUCCCAGCCCUGGAGCCUGGAGGGAGACCACCCUCUGGGUCCUUGCUGGGGCCGCAGACACGCCGGCUGGGGUGAGGAGUGUCUGCUGUCACCCUCUACUCUCCAGCUUCCGUCUUAUAAAUGCAACAGAGGAUUGAGCAUCA
B21: chr17:41502224:41502594:-|three_prime_utr|ENSG00000171401|control|control|control (ssRNA)
RNA: GGGAGUUCUACAGUCCGACGAUCCACGUCUGGAGCAGGAGAUCGCCACCUACCGCAGCCUGCUCGAGGGCCAGGACGCCAAGUAGGUCCUCUCCAGCCUCUUUCUUAGGAUAGUGACUGCAGGACCCGUGGGUGUCAGAGCAGCAACAGAGGAUUGAGCAUCA
B22: chr3:111884732:111884833:+|CDS|ENSG00000144824|msi1|total|mutant (ssRNA)
RNA: GGGAGUUCUACAGUCCGACGAUCCUUCAACCCAAGUUAACCCGACACAAGGAGCUUGCAUCUGAAAACAUCAAUUUGAGAACCCGGAAGUACUCCAGCAGCAGCCUGAGUCACAUGGGAGCCUACAGCCGAUCACUUCCCAGGCAACAGAGGAUUGAGCAUCA

Some of the results follow.

The experiment concerns the target T1, UNK ZnF1-6 (called full-length). The experiment in a line: nsRBNS (natural sequence RNA bind-n-seq); RBNS binding buffer (assumed for nsRBNS): 25 mM Tris pH 7.5, 150 mM KCl, 3 mM MgCl2, 0.01% Triton X-100, 500 ug/ml BSA, 20 U/ml SUPERase-In, 4 C; UNK is unkempt and MSI1 is Musashi-1; names of the RNAs are library labels; protein concentration not given here; high values mean tight binding.
Regarding B1, the binding signal stood at 0.431 enrichment R.
B2: the binding signal worked out at 0.375 enrichment R.
Next, B3: 0.465 enrichment R; B4: 0.413 enrichment R.
B5 had a binding signal of 0.644 enrichment R.
Next, B6: 0.624 enrichment R.
Next, B7: 1.05 enrichment R; B8: 0.539 enrichment R; B9: 0.318 enrichment R.
B10 came in with a binding signal of 1.22 enrichment R.
The molecule B11 gave a binding signal of 1.11 enrichment R.
Then B12, with 0.51 enrichment R; and B13, with 1.15 enrichment R; and B14, with 0.97 enrichment R.
Then B15, with 1.34 enrichment R; and B16, with 0.779 enrichment R.
Molecule B17 had a binding signal of 0.655 enrichment R.
In turn, B18 came in with a binding signal of 0.697 enrichment R.
Next, B19: 0.693 enrichment R.
Then B20, with 0.444 enrichment R; and B21, with 0.751 enrichment R; and B22, with 0.72 enrichment R.

For the origin of these results see article PMC12136788.
